{"source": "patent US9833497B2", "about": "“Human originated EGF domain proteins and use of the same” (CHENGDU SOURCEBIO LIMITED-LIABILITY COMPANY, priority 2013, dated 2017)", "molecules": {"B1": {"name": "PRT867 (protein, listed as Homo sapiens)", "chain": "CSCNQHARRCRFNSELFRLSGGRSGGVCERCRHHTAGRHCHYCQPGFWRDPSQPIFSRRACRA"}, "B2": {"name": "PRT861 (protein, listed as Homo sapiens)", "chain": "CSCNGHARRCRFNMELYRLSGRRSGGVCLNCRHNTAGRHCHYCREGFYRDPGRALSDRRAC"}}, "format_in_all_cases": "cell-based", "key": {"[1]": {"system": "Citrobacter diversus", "experiment": "MIC against Gram-negative bacteria: Citrobacter diversus", "conditions": "C. diversus; 10 h cultivation at 37° C.; 5×10^5 CFU/mL", "protocol": "(§1) 1. Gram-negative bacteria, such as E. coli BL21, Pseudomonas aeruginosa, Klebsiella pneumonia, Enterobacter cloacae, Aeromonas hydrophila, Citrobacter diversus, Moraxella catarrhalis, Proteus mirabilis, Proteus vulgaris, Serratia marcescens, etc were streaked on solid LB medium and cultured respectively. Then, typical clones were picked, inoculated into common liquid LB medium respectively, and cultured at 37° C. with shaking at 185 rpm until the McFarland specific turbidity was 0.5. The bacterial culture of each of Gram-negative bacteria was centrifuged at 4000×g for 3 min, the supernatant was discarded, and the thalli were resuspended with fresh LB medium.\n(§2) 2. The above-mentioned bacterial suspensions were diluted and inoculated into 96-well plates with the final concentration of the bacterial suspension being 5×10^5 CFU/mL per well.\n(§3) 3. Each of the purified human-originated EGF domain proteins (PRT1 to PRT1498 in Table 1) was added to each of the above wells and subjected to two-fold serial dilution in concentration. Three parallel wells were set up for each concentration in the gradient.\n(§4) 4. The above-mentioned 96-well plates were placed and cultured at 37° C. in shaking incubator shaking at 175 rpm. […] The minimal inhibitory concentration MIC is defined as the lowest concentration of the recombinant protein at which there is no growth of the bacteria."}, "[2]": {"system": "E. coli BL21", "experiment": "MIC against Gram-negative bacteria: E. coli BL21", "conditions": "E. coli BL21; 10 h cultivation at 37° C.; 5×10^5 CFU/mL", "protocol": "as §1, §2, §3, §4"}, "[3]": {"system": "Pseudomonas aeruginosa", "experiment": "MIC against Gram-negative bacteria: Pseudomonas aeruginosa", "conditions": "P. aeruginosa; 10 h cultivation at 37° C.; 5×10^5 CFU/mL", "protocol": "as §1, §2, §3, §4"}, "[4]": {"system": "Aeromonas hydrophila", "experiment": "MIC against Gram-negative bacteria: Aeromonas hydrophila", "conditions": "A. hydrophila; 10 h cultivation at 37° C.; 5×10^5 CFU/mL", "protocol": "as §1, §2, §3, §4"}, "[5]": {"system": "Proteus mirabilis", "experiment": "MIC against Gram-negative bacteria: Proteus mirabilis", "conditions": "P. mirabilis; 10 h cultivation at 37° C.; 5×10^5 CFU/mL", "protocol": "as §1, §2, §3, §4"}, "[6]": {"system": "Klebsiella pneumonia", "experiment": "MIC against Gram-negative bacteria: Klebsiella pneumonia", "conditions": "K. pneumonia; 10 h cultivation at 37° C.; 5×10^5 CFU/mL", "protocol": "as §1, §2, §3, §4"}, "[7]": {"system": "Proteus vulgaris", "experiment": "MIC against Gram-negative bacteria: Proteus vulgaris", "conditions": "P. vulgaris; 10 h cultivation at 37° C.; 5×10^5 CFU/mL", "protocol": "as §1, §2, §3, §4"}, "[8]": {"system": "Enterobacter cloacae", "experiment": "MIC against Gram-negative bacteria: Enterobacter cloacae", "conditions": "E. cloacae; 10 h cultivation at 37° C.; 5×10^5 CFU/mL", "protocol": "as §1, §2, §3, §4"}, "[9]": {"system": "Moraxella catarrhalis", "experiment": "MIC against Gram-negative bacteria: Moraxella catarrhalis", "conditions": "M. catarrhalis; 10 h cultivation at 37° C.; 5×10^5 CFU/mL", "protocol": "as §1, §2, §3, §4"}, "[10]": {"system": "Serratia marcescens", "experiment": "MIC against Gram-negative bacteria: Serratia marcescens", "conditions": "S. marcescens; 10 h cultivation at 37° C.; 5×10^5 CFU/mL", "protocol": "as §1, §2, §3, §4"}, "[11]": {"system": "E. coli DH5α", "experiment": "Antibacterial activity: MIC and growth curve against E. coli DH5α in 96-well plate", "conditions": "minimal inhibitory concentration against E. coli DH5α, 5×10^5 CFU/mL, 37° C., judged after 8 h", "protocol": "1. E. coli DH5α was exemplified. E. coli DH5α was streaked and cultured on LB solid medium. Then, a typical clone was picked and inoculated into common LB liquid medium, cultured at 37° C. with shaking at 185 rpm until the logarithmic growth phase was reached (OD600 of about 0.5). The bacterial culture was centrifuged at 4000×g for 3 min, the supernatant was discarded, and the thalli were resuspended with fresh LB medium.\n2. The above-mentioned bacterial suspension was diluted and inoculated into a 96-well plate with the total volume of 100 μL per well and a bacterial count of 5×10^5 CFU/mL.\n3. The recombinant protein hF VII-EGF1 was added to the above-mentioned wells with the final protein concentration in the well of the highest protein concentration being 50 μg/mL. Basing on this final concentration, a two-fold serial dilution was performed till a protein concentration gradient consisting of 50, 25, and 12.5 μg/mL was set up. Three parallel wells were set up for each concentration in the gradient.\n4. […] Samples were taken every 30 min, the absorbance values were determined at 600 nm wavelength under a ultra violet spectrophotometer, and an inhibition curve was plotted. […]\nAccording to the experimental procedures in Example 14, the minimal inhibitory concentrations (MIC, μg/mL) of the other human-originated EGF domain proteins (PRT2 to PRT1498 in Table 1) for E. coli DH5α were determined."}}}
{"molecule": "B1", "values": [{"measurement": "MIC (μg/mL) C. diversus", "setting": "[1]", "result": 25, "unit": "µg/mL"}, {"measurement": "MIC (μg/mL) E. coli BL21", "setting": "[2]", "result": 25, "unit": "µg/mL"}, {"measurement": "MIC (μg/mL) P. aeruginosa", "setting": "[3]", "result": 12.5, "unit": "µg/mL"}, {"measurement": "MIC (μg/mL) A. hydrophila", "setting": "[4]", "result": 12.5, "unit": "µg/mL"}, {"measurement": "MIC (μg/mL) P. mirabilis", "setting": "[5]", "result": 25, "unit": "µg/mL"}, {"measurement": "MIC (μg/mL) K. pneumonia", "setting": "[6]", "result": 50, "unit": "µg/mL"}, {"measurement": "MIC (μg/mL) P. vulgaris", "setting": "[7]", "result": 12.5, "unit": "µg/mL"}, {"measurement": "MIC (μg/mL) E. cloacae", "setting": "[8]", "result": 25, "unit": "µg/mL"}, {"measurement": "MIC (μg/mL) M. catarrhalis", "setting": "[9]", "result": 50, "unit": "µg/mL"}, {"measurement": "MIC (μg/mL) S. marcescens", "setting": "[10]", "result": 50, "unit": "µg/mL"}, {"measurement": "MIC", "setting": "[11]", "result": 50, "unit": "µg/mL"}]}
{"molecule": "B2", "values": [{"measurement": "MIC (μg/mL) C. diversus", "setting": "[1]", "result": 12.5, "unit": "µg/mL"}, {"measurement": "MIC (μg/mL) E. coli BL21", "setting": "[2]", "result": 12.5, "unit": "µg/mL"}, {"measurement": "MIC (μg/mL) P. aeruginosa", "setting": "[3]", "result": 12.5, "unit": "µg/mL"}, {"measurement": "MIC (μg/mL) A. hydrophila", "setting": "[4]", "result": 25, "unit": "µg/mL"}, {"measurement": "MIC (μg/mL) P. mirabilis", "setting": "[5]", "result": 12.5, "unit": "µg/mL"}, {"measurement": "MIC (μg/mL) K. pneumonia", "setting": "[6]", "result": 25, "unit": "µg/mL"}, {"measurement": "MIC (μg/mL) P. vulgaris", "setting": "[7]", "result": 25, "unit": "µg/mL"}, {"measurement": "MIC (μg/mL) E. cloacae", "setting": "[8]", "result": 12.5, "unit": "µg/mL"}, {"measurement": "MIC (μg/mL) M. catarrhalis", "setting": "[9]", "result": 25, "unit": "µg/mL"}, {"measurement": "MIC (μg/mL) S. marcescens", "setting": "[10]", "result": 12.5, "unit": "µg/mL"}, {"measurement": "MIC", "setting": "[11]", "result": 12.5, "unit": "µg/mL"}]}
